Results as given in article PMC4336329 (PLoS ONE, 2015).
In all, about 310,000 compounds went through this assay and about 2,200 (0.71%) showed an effect of 50% or more. The effect is printed as a negative number. Some of the results follow.

target: human ether-à-go-go-related gene (hERG) potassium channel (human, UniProt Q12809); assay: primary screen, population patch clamp on CHO cells stably expressing hERG
Sequence (Q12809 whole entry, looked up): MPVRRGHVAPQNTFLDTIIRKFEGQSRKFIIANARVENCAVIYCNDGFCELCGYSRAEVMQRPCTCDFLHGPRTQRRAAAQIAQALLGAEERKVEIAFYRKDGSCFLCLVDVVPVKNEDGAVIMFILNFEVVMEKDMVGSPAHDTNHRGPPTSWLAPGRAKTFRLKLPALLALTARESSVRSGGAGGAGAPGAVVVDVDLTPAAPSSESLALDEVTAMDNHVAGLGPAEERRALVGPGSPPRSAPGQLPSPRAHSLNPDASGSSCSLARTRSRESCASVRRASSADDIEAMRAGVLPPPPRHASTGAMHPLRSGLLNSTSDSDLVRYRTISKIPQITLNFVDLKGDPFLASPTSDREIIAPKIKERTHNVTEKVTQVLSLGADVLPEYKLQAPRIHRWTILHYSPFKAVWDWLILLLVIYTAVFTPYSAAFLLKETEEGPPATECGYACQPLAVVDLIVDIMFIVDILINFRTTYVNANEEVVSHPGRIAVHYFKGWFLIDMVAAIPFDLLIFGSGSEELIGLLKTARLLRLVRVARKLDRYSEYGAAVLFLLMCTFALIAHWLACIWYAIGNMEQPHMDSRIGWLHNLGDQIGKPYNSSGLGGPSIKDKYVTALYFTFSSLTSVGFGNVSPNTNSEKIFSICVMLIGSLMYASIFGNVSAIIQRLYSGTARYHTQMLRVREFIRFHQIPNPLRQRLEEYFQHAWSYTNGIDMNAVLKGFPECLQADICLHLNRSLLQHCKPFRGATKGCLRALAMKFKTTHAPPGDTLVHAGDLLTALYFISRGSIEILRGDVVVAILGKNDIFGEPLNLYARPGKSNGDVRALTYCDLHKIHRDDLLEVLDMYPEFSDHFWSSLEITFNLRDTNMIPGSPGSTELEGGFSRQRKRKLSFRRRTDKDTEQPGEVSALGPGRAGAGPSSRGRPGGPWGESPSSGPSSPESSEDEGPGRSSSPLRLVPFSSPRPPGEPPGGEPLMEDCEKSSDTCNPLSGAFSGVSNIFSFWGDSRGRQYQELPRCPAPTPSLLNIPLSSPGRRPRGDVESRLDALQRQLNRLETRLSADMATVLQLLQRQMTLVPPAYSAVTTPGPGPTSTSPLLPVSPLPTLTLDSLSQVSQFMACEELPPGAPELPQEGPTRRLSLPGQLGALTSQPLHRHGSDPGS

Row | SMILES | hERG current change (%, negative = inhibition) at 1uM [%]
1 | Cc1cccc(-n2cc[nH]c2=S)c1 | 10.7
2 | N#Cc1ccc(Cn2c(=O)c(C#N)c3n(c2=O)CCC3)cc1 | -3.72
3 | Cc1ccccc1OCC(=O)Nc1ccc(N2CCN(C(=O)C(C)C)CC2)c(Cl)c1 | 3.02
4 | Cc1ccc(-n2c(=O)[nH]c3c(oc4ccccc43)c2=O)cc1 | 9.51
5 | CC(=O)Nc1cccc(OCC(=O)NC(C)C(C)C)c1 (centres unmarked) | 14.2
6 | NC(=O)c1ccc(-n2nnnc2SCC(=O)Nc2ccc(N3CCOCC3)c(Cl)c2)cc1 | 7.05
7 | Cl.NCC(CC(=O)O)c1ccc(Cl)cc1 (centres unmarked) | 6.28
8 | COc1ccc(C2=NN(C(=O)CSc3ncccn3)C(c3cccc(OC)c3OC)C2)cc1 (centres unmarked) | 7.76
9 | O=C(CCn1c(=S)oc2ccccc21)N1CCCCC1 | 3.72
10 | Cc1cc(NC(=O)COC(=O)c2ccccc2S(=O)(=O)N(C)c2ccccc2)no1 | -0.553
11 | Cc1ccccc1OCC(=O)NCCN(C)C | 7.24
12 | Cc1nnc(SCC(=O)Nc2cccc(S(=O)(=O)NC3=NCCCCC3)c2)n1Cc1ccccc1 | 11.3
13 | CCC(C)NC(=O)C(Cc1ccccc1)NS(=O)(=O)c1ccc2c(c1)CCC(=O)N2 (centres unmarked) | 21.2
14 | COc1ccc(N2C3=C(C(=O)CC(C)(C)C3)C(c3cnn(C)c3)C3=C2CC(C)(C)CC3=O)cc1 | 11
15 | O=c1onc(-c2cccs2)n1Cc1ccccc1 | 13.4
16 | CCCCCCCCCCCCN1[C@@H](CC(=O)OC)c2cc(C(F)(F)F)ccc2S1(=O)=O | -13.1
17 | COc1cc(NC(=O)c2ccc3snnc3c2)cc(OC)c1 | 15.9
18 | CNc1nc(SCC(=O)Nc2ccccc2)nc(N2CCOCC2)n1 | 6.03
19 | Cc1cc(=O)n(C)c(=O)n1CCCCOc1cccc([N+](=O)[O-])c1 | 9.25
20 | O=C(CSc1nnc2scc(-c3ccccc3)n12)Nc1nsc(-c2ccc(Cl)cc2)n1 | 3.71
21 | CC(=O)Nc1ccc(NC(=O)c2cc(-c3ccccc3)nc3ccccc23)cc1 | 15.7
22 | COc1ccc(CCN2CC(C(=O)N(C)Cc3ccc(C)o3)CCC2=O)cc1 (centres unmarked) | 11.4

Row | SMILES | hERG current change (%, negative = inhibition) at 1uM [%]
23 | O=C(O)c1ccc(Cn2ccc3ccccc32)o1 | 15.7
24 | COc1ccc(C(=O)NCC(=O)N/N=C(C)\C=C\c2ccccc2)cc1OC | 6.33
25 | CCN=C1SC(CC(=O)Nc2ccccc2)C(=O)N1CC (centres unmarked) | -2.06
26 | CN(CC(=O)N(CCO)Cc1ccccc1)S(=O)(=O)c1ccc2c(c1)c(=O)n(C)c(=O)n2C | 7.09
27 | CC(NCC(O)COCc1cccs1)C1CC2CCC1C2 (centres unmarked) | 11.9
28 | O=C(CN1CCN(CC(=O)Nc2ccccc2Cl)CC1)NCC1(N2CCCCC2)CCCCC1 | 0.456
29 | Cc1ccc(CN(C(=O)c2cc3ccccc3oc2=O)C2CCS(=O)(=O)C2)cc1 (centres unmarked) | 18.7
30 | CCOC(=O)CC(=O)CSC1=C(C#N)C(c2ccccc2OC)CC(=O)N1 (centres unmarked) | -6.1
31 | Cc1cccc(N2CCN(C(=O)c3cc4cc(F)ccc4[nH]3)CC2)c1C | 12.9
32 | Cc1ccc(-c2c(C(=O)N/N=C/c3ccsc3)nnn2-c2nonc2N)cc1 | 13.1
33 | CCc1ccc(OCC(=O)NCc2ccco2)c(Br)c1 | 12.6
34 | CC(Sc1ccccc1)C(=O)N1CCN(S(=O)(=O)c2cccc(Br)c2)CC1 (centres unmarked) | 7.59
35 | COc1ccc(CN2CCNC(=O)C2CC(=O)NC2CCCC2)cc1OC (centres unmarked) | 9.83
36 | CSc1ccc(CN2CCN(C(=O)Cc3ccccc3)CC2)cc1 | 9.67
37 | CCOc1cc(N2CCOCC2)c(OCC)cc1NC1=NCCCCC1.Cl | 9.49
38 | CCCCCCCc1nc2sc3c(c2c(=O)n1N)CC(C)(C)OC3 | 8.85
39 | COC(=O)Cn1c(=NC(=O)c2ccc(Cl)s2)sc2cc(F)ccc21 | 7.96
40 | CC(=O)c1ccc(NC(=O)COC(=O)c2ccccc2Sc2ccccc2C#N)cc1 | -4.8
41 | O=C1C(Cc2ccccc2O)NC(=S)N1c1ccccc1 (centres unmarked) | 16.9
42 | COC(=O)c1c(NC(=O)c2ccccc2C(=O)O)sc2c1CCC2 | 9.21
43 | Cc1ccc(-c2nc3ncccc3o2)cc1NC(=O)COc1ccccc1 | 2.62
44 | O=S(=O)(c1ccccc1)N1CCN(Cc2ccccc2C(F)(F)F)CC1 | 9.89
